Patent publication US4313952A, “Method of treating acute alcoholic intoxication with pyridoxine P.C.A” (priority 1980, dated 1982)

Experiments:
[1] = test system: patients suffering from acute ethylism; assay: Aggressivity in patients with acute ethylism (i.v. treatment); details: P 250 mg (11 patients), PCP 300 mg (17 patients)
[2] = test system: patients suffering from acute ethylism; assay: Psychomotor excitation in patients with acute ethylism (i.v. treatment); details: P 250 mg (17 patients), PCP 300 mg (22 patients)
cases of acute ethylism = details: about 20 cases each week; cited from earlier work

| Compound | Aggressivity, worsening or persistence, % of patients [1] | Aggressivity, worsening or persistence, number of patients [1] | Aggressivity, ready improvement <1 h., % of patients ([1]; <1 h.) | Aggressivity, ready improvement <1 h., number of patients ([1]; <1 h.) | Aggressivity, slow improvement <6 h., % of patients ([1]; <6 h.) | Aggressivity, slow improvement <6 h., number of patients ([1]; <6 h.) | Psychomotor excitation, worsening or persistence, % of patients [2] | Psychomotor excitation, worsening or persistence, number of patients [2] | Psychomotor excitation, rapid improvement <1 h., % of patients ([2]; <1 h.) | Psychomotor excitation, rapid improvement <1 h., number of patients ([2]; <1 h.) | Psychomotor excitation, slow improvement <6 h., number of patients ([2]; <6 h.) | Results as regards minor effects (space-time orientation, statics and equilibrium) (cases of acute ethylism) | Results as regards psychomotor excitation (cases of acute ethylism) |
| --- | --- | --- | --- | --- | --- | --- | --- | --- | --- | --- | --- | --- | --- |
| Cc1ncc(CO)c(CO)c1O.Cl [P, pyridoxine hydrochloride, reference compound] | 0% | 0 N. | 18.1% | 2 N. | 81.8% | 9 N. | 5.7% | 1 N. | 11.8% | 2 N. | 14 N. | – | – |
| Cc1ncc(CO)c(CO)c1O [pyridoxine] | – | – | – | – | – | – | – | – | – | – | – | favourable | inconstant results |
